Out of some 150,000 compounds screened, about 190 (0.13%) were called active. This list was built around the results that the source calls inconclusive (neither active nor inactive); the mix of calls is not that of the screen. The call rests on the fitted dose curve; in most records, active means well fitted inhibition curve with a large enough effect; inconclusive means small, poorly fitted or top-dose-only effect; inactive means flat fitted curve, though single readings scatter. Where the call is inconclusive, the potency comes from a doubtful curve fit.
Each compound was assayed against Polyunsaturated fatty acid lipoxygenase ALOX12 (Homo sapiens) (UniProt P18054) (assay: qHTS Assay for Inhibitors of 12-hLO (12-human lipoxygenase)). Conditions: purified 12-hLO, xylenol orange hydroperoxide absorbance; series mostly up to 57.1 µM; activity change, negative = inhibition: at the top concentration.
Summary of the method: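 150 nM 12hLO, 25 mM Hepes pH 7.0 + 0.01% Triton X-100; cpd preinc 15 min RT; 40 uM arachidonic acid, 30 min RT; Fe-XO 30 min; A573/A405 ratio as read-out.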
Further: nearly all actives have a fitted effect of over 55% in size.
On the % scale 0 is the no-effect control and ±100 the full control effect; potency means the concentration at half of the fitted maximal effect; tags describe the fitted curve by direction and shape.

UniProt P18054, sequence (P18054 whole entry, looked up): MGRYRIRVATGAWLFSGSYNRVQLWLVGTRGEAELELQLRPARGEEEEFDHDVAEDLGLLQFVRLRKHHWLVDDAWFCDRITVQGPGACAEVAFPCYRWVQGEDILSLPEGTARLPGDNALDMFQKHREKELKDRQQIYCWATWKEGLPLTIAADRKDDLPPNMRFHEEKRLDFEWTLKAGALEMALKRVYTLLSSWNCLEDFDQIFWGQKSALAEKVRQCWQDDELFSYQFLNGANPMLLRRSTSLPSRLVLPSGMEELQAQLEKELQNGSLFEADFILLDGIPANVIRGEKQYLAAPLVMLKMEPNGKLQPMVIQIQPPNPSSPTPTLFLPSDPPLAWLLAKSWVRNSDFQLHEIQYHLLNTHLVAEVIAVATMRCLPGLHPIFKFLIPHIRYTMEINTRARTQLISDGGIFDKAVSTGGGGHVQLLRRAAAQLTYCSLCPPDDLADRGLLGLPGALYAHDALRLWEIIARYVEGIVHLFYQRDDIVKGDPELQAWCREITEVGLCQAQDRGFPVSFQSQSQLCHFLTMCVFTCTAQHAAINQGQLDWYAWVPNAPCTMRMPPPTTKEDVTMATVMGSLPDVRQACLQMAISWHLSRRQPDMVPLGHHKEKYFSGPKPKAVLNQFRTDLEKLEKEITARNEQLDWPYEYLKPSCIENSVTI

Potency, active:
C/C(=N\Nc1nc2ccccc2s1)c1cccs1 12.6 µM
CCOc1ccccc1NC(=S)Nc1ncccc1C 20 µM
S=C(Nc1ccc(Oc2ccccc2)cc1)NC1CCCC1 14.1 µM

Potency, inconclusive:
CCNc1nc(-c2ccc(Cl)cc2)cs1 15.8 µM [inhibitor, partial curve]
CCOC(=O)CSC1=C(C#N)C(=O)NC(c2ccc(OC)cc2)S1 (stereo unspecified) 39.8 µM [inhibitor, single point]
Cc1ccc(NS(=O)(=O)c2ccc(Cl)c(NC(=S)NC(=O)C3CCCCC3)c2)cc1Cl 12.6 µM [inhibitor, partial curve]
CCOC(=O)C1=C(C)NC(=S)NC1c1ccc(-c2cccc(Cl)c2C)o1 (stereo unspecified) 7.94 µM [inhibitor, partial curve]
COc1cc(CC(=O)Nc2ncc(C)s2)cc(OC)c1OC 0.0251 µM [inhibitor, full curve, poor fit]
CC1(C)CC(=O)c2c(oc3cc4c(cc23)OCO4)C1 6.31 µM [inhibitor, partial curve]
COc1ccc(C(=O)NC(=S)Nc2ccccc2N2CCCCC2)cc1[N+](=O)[O-] 25.1 µM [inhibitor, single point]
Cc1ccc(C(=O)C(NC(=O)c2ccco2)Nc2sc3c(c2C(N)=O)CCCC3)cc1 (stereo unspecified) 28.2 µM [inhibitor, partial curve]
COc1cc2c(cc1OC)C1(CCCC1)C(N)=C2C#N 15.8 µM [inhibitor, partial curve]
Cc1csc(NC(=O)CCCSc2nc3ccccc3s2)n1 28.2 µM [inhibitor, single point]
COC(=O)CSc1nc(-c2ccccc2)cc(-c2ccco2)c1C#N 14.1 µM [inhibitor, partial curve]
NC(=S)N/N=C/c1ccc(-c2cccc([N+](=O)[O-])c2)o1 14.1 µM [inhibitor, partial curve]
Cc1cc(C)cc(NC(=S)NCc2cccn2C)c1 25.1 µM [inhibitor, single point]
COc1cc(-c2cc(OC)c3c(C)oc(C)c3c(=O)c2)ccc1O 15.8 µM [inhibitor, partial curve]
COc1ccccc1N1C(=O)N(C(C)=O)C2C1Nc1ccccc1N2C (stereo unspecified) 14.1 µM [inhibitor, partial curve]
Cn1ccnc1SCC(=O)c1ccc(Br)cc1 12.6 µM [inhibitor, partial curve]
COC(=O)c1ccccc1NC(=S)NC(=O)c1ccc2ccccc2c1 39.8 µM [inhibitor, single point]
N#CC1(C#N)COC23CCCCC2C1(C#N)C(=N)O3 (stereo unspecified) 17.8 µM [inhibitor, partial curve]
N#CC1=C2SCN(Cc3ccco3)CN2C(=O)CC1c1ccc(Cl)cc1 (stereo unspecified) 17.8 µM [inhibitor, partial curve]
Cc1ccc(C2=CC(c3cccs3)n3nnnc3N2)cc1 (stereo unspecified) 31.6 µM [inhibitor, single point]
CCCC(=O)C1=C(c2ccccc2)C(C#N)(C#N)C(C#N)=C1N 31.6 µM [inhibitor, single point]
O=C(CNC(=S)NC(=O)c1cccs1)c1ccccc1 25.1 µM [inhibitor, partial curve]
Cc1ccc(CSCCNC(=O)/C=C/c2ccccc2Cl)cc1 14.1 µM [inhibitor, partial curve]
Cc1ccc(-c2csc(C3C(N)=NC(S)=C(C#N)C34CCCCC4)n2)cc1 (stereo unspecified) 25.1 µM [inhibitor, single point]
Cc1ccc(NC(=O)c2ccc(Cl)c(N3C(=O)C=CC3=O)c2)cc1 14.1 µM [inhibitor, partial curve]
Cc1cc(NS(=O)(=O)c2ccc(NC(=S)NC(=O)c3ccc(Br)cc3)cc2)no1 12.6 µM [inhibitor, partial curve]
COc1ccccc1-c1ccc2ncnc(NCc3cccnc3)c2c1 39.8 µM [inhibitor, single point]
CC(C)(C)c1cccc(/C=N/O)c1O 31.6 µM [inhibitor, single point]
CC(C)CN1C(=O)/C(=C/c2ccco2)NC1=S 31.6 µM [inhibitor, single point]
O=C(COC(=O)c1cc(-c2cccs2)nc2ccccc12)NCc1ccco1 12.6 µM [inhibitor, partial curve]
CC(C)NC(=S)N/N=C/C1=CCC2CC1C2(C)C (stereo unspecified) 28.2 µM [inhibitor, single point]
CC1CCN(C(=S)c2cn(Cc3ccc(F)cc3)c3ccccc23)CC1 25.1 µM [inhibitor, partial curve]
CCCCC1(C)Cc2ccccc2C(=S)N1 (stereo unspecified) 22.4 µM [inhibitor, single point]
COc1ccccc1NC(=S)NCCSc1ccc(C)cc1 39.8 µM [inhibitor, single point]
Cc1ccc(C(C)C)c(OCCNC(=S)Nc2cccc3ccccc23)c1 14.1 µM [inhibitor, partial curve]
COc1ccccc1-c1nc(NCc2cnc(C)cn2)c2ccccc2n1 25.1 µM [inhibitor, partial curve]
CCc1ccccc1NC(=S)NCc1ccc2c(c1)OCO2 28.2 µM [inhibitor, single point]
Cc1ccc(O)c(Sc2cc(C)ccc2O)c1 5.01 µM [inhibitor, partial curve]
COc1ccc(C2NC3=C(CCC3)C3(C#N)C4(N=C(N)C23C#N)OCCO4)cc1 (stereo unspecified) 10 µM [inhibitor, partial curve]
COc1cc(/C=C2\SC(=S)N(Nc3ncc(C(F)(F)F)cc3Cl)C2=O)ccc1O 28.2 µM [inhibitor, single point]
COc1ccc2c(c1OC)C(Cc1ccccc1)N1CCc3cc4c(cc3C1=C2)OCO4 (stereo unspecified) 22.4 µM [inhibitor, partial curve]
CCCCc1ccc(NC(=S)Nc2ccc(Nc3ccc(OC)cc3)cc2)cc1 25.1 µM [inhibitor, partial curve]
Cc1ccccc1NC(=S)NNc1ncc(C(F)(F)F)cc1Cl 11.2 µM [inhibitor, partial curve]
COCCCNC(=S)NC(=O)c1ccc(C)cc1 31.6 µM [inhibitor, single point]
COc1ccc(NC(=S)NCCc2c[nH]c3ccccc23)c(OC)c1 25.1 µM [inhibitor, single point]
O=C(/C=C/c1ccc(O)c(O)c1)c1ccc(S(=O)(=O)N2CCCCCC2)cc1 3.16 µM [inhibitor, partial curve]
Cc1ccc(NC(=S)NC2CC3CCCC(C2)N3Cc2cccs2)cc1 (stereo unspecified) 35.5 µM [inhibitor, single point]
O=C1C(Cl)=C(Nc2ccc(S(=O)(=O)Nc3ccccn3)cc2)C(=O)c2ccccc21 3.55 µM [inhibitor, partial curve]
Brc1ccc(C=Nc2ccc(Nc3ccccc3)cc2)s1 8.91 µM [inhibitor, partial curve]

Activity change, negative = inhibition, inactive:
CCCCn1c(O)c(N=NC(=O)c2ccccc2NS(=O)(=O)c2cccs2)c2ccccc21 -2.25%
CC[C@]1(O)C[C@H]2CN(CCc3c([nH]c4ccccc34)[C@](C(=O)OC)(c3cc4c(cc3OC)N(C)[C@@H]3[C@](O)(C(=O)OC)[C@H](OC(C)=O)[C@]5(CC)C=CCN6CC[C@]43[C@@H]65)C2)C1 -12.1%
Cc1nc2c(=O)n(C)c(=O)[nH]c2n1Cc1ccccc1 2.3%
Cn1c(NCCCO)nc2c1c(=O)n(Cc1ccccc1F)c(=O)n2C -0.148%
COc1ccc(C2c3sc(=O)[nH]c3SC3C4CCC(C4)C23)cc1OC (stereo unspecified) -2.6%
Nc1c(C(=O)c2ccc(Cl)cc2)sc2c1c(=O)[nH]c(=O)n2-c1ccccc1 3.25%
COc1ccc(-c2nnc(SCC(=O)N3CCCCC3)o2)c(OC)c1 -11.4%
CC(C)C(=O)N(c1ccc(F)cc1)C1C=CS(=O)(=O)C1 (stereo unspecified) -2.97%
Cn1cccc1/C=N/NC(=O)c1cccnc1 3%
COc1ccc(CCNC(=O)c2ccc3c(=O)n(Cc4ccco4)c(=S)[nH]c3c2)cc1OC -9.76%
CC(C)=C[C@H]1[C@@H](COC(=O)c2cc3c(cc2Cl)OCO3)C1(C)C -15.5% [at 11.4 µM]
CC(C)(C)c1ccc(/C=N/Nc2ccc(C(=O)O)cc2)cc1 1.46%
O=c1c(-c2cccs2)nc2cnc(N3CCNCC3)nc2n1-c1ccccc1 -5.98%
CCN1C(=O)N/C(=C/c2ccc(C)o2)C1=O -4.1%
COc1ccc(C2=CC(c3cc(OC)c(OC)c(OC)c3)NC(=S)N2)cc1 (stereo unspecified) -8.83%
COc1ccccc1N1CCN(C(=O)C2c3ccccc3Oc3ccccc32)CC1 -8.63%
CCOC(=O)Cc1csc(SCC(=O)NC2CCCC(C)C2C)n1 (stereo unspecified) 1.71%
C/C=C/Cn1c(SCc2ccc(C)cc2)nc2c1c(=O)[nH]c(=O)n2C 0.134%
CCOC(=O)CSc1nsc(SCC(=O)OCC)c1C#N -7.6%
